# Measured values as given in PubChem BioAssay (Tox21).
# Values joined by “and” are separate entries in the source; they are usually repeats but may differ in a detail not shown here. Identical values can stand only once. Inconclusive results, whose numbers are uncertain, are shown with a selection of clear calls. Where the call is inconclusive, the potency comes from a doubtful curve fit. Active and inactive are the calls of the source. Unless noted, calls follow the shape of the dose curve; as a rule, active = well fitted curve in the direction sought with a large enough effect in the repeat runs; inconclusive = weak or mixed curves; inactive = no such curve, though single readings can be large; an effect the other way counts as inactive or inconclusive.
# Key:
# [1] = qHTS assay for small molecule agonists of the p53 signaling pathway (AID 651631; calls by dose curve; also: nearly all actives have a fitted effect of over 15% in size; as to activation: % is scaled to controls: 0 for no effect and ±100 for the full control effect); details: HCT-116 p53RE-bla reporter, beta-lactamase FRET ratio, 16 h; activation: at 73.3 µM (top of the series) unless noted
# How it was run: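 Stably transfected HCT-116 cells (beta-lactamase behind p53 response elements) get compounds after a 5 h settling period; 16 h later at 37 °C, FRET substrate is loaded and fluorescence read after 2 h.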
# [2] = qHTS assay for small molecule disruptors of the mitochondrial membrane potential - cell viability (AID 720634; calls by dose curve; also: nearly all actives have a fitted effect of over 20% in size)
# How it was run: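 HepG2 cells, 2,000 per well, attached overnight, then treated 1 hr at 37 C, 5% CO2. Viability read as ATP by CellTiter-Glo luminescence after 30 min at room temperature. Read in the same wells as the m-MPI membrane-potential dye assay.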
# [3] = qHTS assay for small molecule disruptors of the mitochondrial membrane potential (AID 720635); details: HepG2 mitochondrial membrane potential, Mito-MPS dye ratio; ratio activity, negative = MMP loss: at 83.2 µM (top of the series) unless noted
# How it was run: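 HepG2 cells (2,000/well) attached overnight at 37C, then took compound for 1 hr at 37C, 5% CO2. Mito-MPS dye was added for 30 min; fluorescence was read at 490/535 nm (monomers) and 540/590 nm (aggregates).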
# [4] = target: Glucocorticoid receptor (Homo sapiens) (UniProt P04150); test: qHTS assay to identify small molecule agonists of the glucocorticoid receptor (GR) signaling pathway (AID 720691; active = well fitted activation curve with a large enough effect in the signal ratio in the repeat runs, not every such curve was filed as active; inconclusive = weak or mixed curves, or effect the other way; inactive = no such curve, though single readings can be large or run the other way; the % refers to the signal ratio; as to activation: % is scaled to controls: 0 for no effect and ±100 for the full control effect); details: GR-bla HeLa, beta-lactamase reporter ratio, 18 h; activation: at 62.4 µM (top of the series) unless noted
# How it was run: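 GR-bla HeLa cells carrying a GRE-driven beta-lactamase reporter, exposed to compounds for 18 h at 37 C. Reporter activation read as fluorescence after 2 h with LiveBLAzer B/G FRET substrate at room temperature.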
# [5] = target: Glucocorticoid receptor (Homo sapiens) (UniProt P04150); test: qHTS assay to identify small molecule antagonists of the glucocorticoid receptor (GR) signaling pathway (AID 720692; active = well fitted inhibition curve with a large enough effect in the signal ratio in the repeat runs, not every such curve was filed as active; inconclusive = weak or mixed curves, or effect the other way; inactive = no such curve, though single readings can be large or run the other way; the % refers to the signal ratio; as to activity change, negative = inhibition: % is scaled to controls: 0 for no effect and ±100 for the full control effect); details: GR-bla HeLa, beta-lactamase FRET ratio, dexamethasone-stimulated, 18 h; activity change, negative = inhibition: at 58.5 µM (top of the series) unless noted
# How it was run: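 GR-bla HeLa cells carrying a GRE-driven beta-lactamase reporter received compound after 4 h plating, then dexamethasone (5 nM final). After 18 h at 37C, the FRET substrate was loaded for 2 h at room temperature and fluorescence read.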
# [6] = qHTS assay to identify small molecule antagonists of the glucocorticoid receptor (GR) signaling pathway - cell viability counter screen (AID 720693); details: GR-bla HeLa viability, CellTiter-Glo luminescence, 18 h, with 5 nM dexamethasone present; viability change, negative = cytotoxic: at 58.5 µM (top of the series) unless noted; also: nearly all actives have a fitted effect of over 55% in size
# [7] = qHTS assay for identifying genotoxic compounds that show differential cytotoxicity against isogenic chicken DT40 cell lines with known DNA damage response pathways - Rev3 mutant cell line (AID 743014); details: chicken DT40 Rev3-/- viability, CellTiter-Glo, 40 h; activity, negative = cytotoxicity: at 68.4 µM (top of the series) unless noted; also: nearly all actives have a fitted effect of over 55% in size; as to activity, negative = cytotoxicity: % is scaled to controls: 0 for no effect and ±100 for the full control effect
# [8] = qHTS assay for small molecules that induce genotoxicity in human embryonic kidney cells expressing luciferase-tagged ATAD5 - cell viability (AID 651634; calls by dose curve; also: nearly all actives have a fitted effect of over 25% in size)
# How it was run: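 HEK293T cells carrying luciferase-tagged ATAD5, 2,000 cells/well, exposed to compound for 15.5 hr at 37C. Viability read as live-cell protease activity by CellTiter-Fluor fluorescence after 30 min at 37C.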
# [9] = qHTS assay for identifying genotoxic compounds that show differential cytotoxicity against isogenic chicken DT40 cell lines with known DNA damage response pathways - wild type cell line (AID 743012); details: DT40 wild type chicken cells viability, CellTiter-Glo, 40 h; activity change, negative = cytotoxicity: at 68.4 µM (top of the series) unless noted; also: nearly all actives have a fitted effect of over 60% in size
# How it was run: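 Wild-type DT40 cells (300/well) exposed to compounds for 40 hours at 37 C/5% CO2. Viability read by CellTiter-Glo luminescence after 30 min at room temperature.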
# [10] = qHTS assay for identifying genotoxic compounds that show differential cytotoxicity against isogenic chicken DT40 cell lines with known DNA damage response pathways - Rad54/Ku70 mutant cell line (AID 743015); details: DT40 Rad54/Ku70 mutant viability, CellTiter-Glo, 40 h; activity change, negative = cytotoxicity: at 66.8 µM (top of the series) unless noted; also: nearly all actives have a fitted effect of over 60% in size
# Potency is read from the fitted curve at half-maximal effect; tags tell the direction and shape of the fitted curve or compound fluorescence and quenching.
# Sequence of UniProt P04150 (P04150 whole entry, looked up): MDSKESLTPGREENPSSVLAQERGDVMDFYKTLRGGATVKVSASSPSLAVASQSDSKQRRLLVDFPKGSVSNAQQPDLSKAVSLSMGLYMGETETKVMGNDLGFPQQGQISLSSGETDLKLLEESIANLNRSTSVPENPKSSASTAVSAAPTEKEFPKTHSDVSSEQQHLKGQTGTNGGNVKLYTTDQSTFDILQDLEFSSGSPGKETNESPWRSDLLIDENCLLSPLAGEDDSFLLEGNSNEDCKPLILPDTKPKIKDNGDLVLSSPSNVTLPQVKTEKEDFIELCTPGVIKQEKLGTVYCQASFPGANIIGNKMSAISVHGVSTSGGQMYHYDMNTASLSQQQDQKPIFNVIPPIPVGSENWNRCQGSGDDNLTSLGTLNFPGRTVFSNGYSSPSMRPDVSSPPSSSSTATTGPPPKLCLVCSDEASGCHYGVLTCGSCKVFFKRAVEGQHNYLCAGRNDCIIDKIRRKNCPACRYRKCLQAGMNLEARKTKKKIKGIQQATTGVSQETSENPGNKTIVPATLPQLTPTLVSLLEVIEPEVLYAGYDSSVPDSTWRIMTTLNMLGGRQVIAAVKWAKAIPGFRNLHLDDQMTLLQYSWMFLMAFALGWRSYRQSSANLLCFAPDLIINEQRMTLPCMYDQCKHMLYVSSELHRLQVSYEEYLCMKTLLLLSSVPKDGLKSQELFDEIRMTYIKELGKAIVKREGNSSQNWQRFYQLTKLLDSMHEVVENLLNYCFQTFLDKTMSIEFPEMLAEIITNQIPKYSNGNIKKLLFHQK
smiles,measurement,setting,value
CCOC(=O)C1(c2ccccc2)CCN(CCC(C#N)(c2ccccc2)c2ccccc2)CC1,Potency,[1],active: 3.76 µM and active: 26.6 µM
same,Potency,[2],"inconclusive: 10.6 µM [cytotoxic, partial curve] and inconclusive: 5.31 µM [cytotoxic, partial curve, poor fit]"
same,Potency,[3],active: 13.3 µM and active: 26.6 µM
same,Potency,[4],active: 60 µM
same,activation,[4],inconclusive: 11.9%
same,Potency,[5],"inconclusive: 15.1 µM [cytotoxic, partial curve] and inconclusive: 19 µM [cytotoxic]"
same,Potency,[6],"inconclusive: 6.74 µM [cytotoxic, full curve]"
same,Potency,[7],active: 3.76 µM and active: 10.6 µM
O=[N+]([O-])C(Br)Br,Potency,[1],inconclusive: 68.7 µM [activator]
same,Potency,[8],"inconclusive: 27.4 µM [falling, partial curve, poor fit]"
same,Potency,[2],"inconclusive: 77.1 µM [cytotoxic, single point]"
same,Potency,[3],"inconclusive: 68.7 µM [inhibitor, single point]"
same,Potency,[9],inconclusive: 68.7 µM [cytotoxic]
same,Potency,[7],"inconclusive: 77.1 µM [cytotoxic, single point]"
same,Potency,[10],"inconclusive: 68.7 µM [cytotoxic, single point]"
CCCCC(O)(Cn1cncn1)c1ccc(Cl)cc1Cl (centres undefined),Potency,[1],inconclusive: 76.9 µM [cytotoxic]
same,Potency,[8],"inconclusive: 76.9 µM [falling, partial curve, poor fit]"
same,Potency,[2],"inconclusive: 48.5 µM [cytotoxic, partial curve]"
same,Potency,[5],inconclusive: 24.5 µM
same,Potency,[6],"inconclusive: 61.6 µM [cytotoxic, single point]"
same,Potency,[9],active: 15.3 µM
CCOP(=S)(NC(C)C)Oc1ccccc1C(=O)OC(C)C (centres undefined),Potency,[1],inactive
same,Potency,[2],"inconclusive: 30.6 µM [cytotoxic, partial curve]"
same,Potency,[3],active: 27.3 µM
same,Potency,[5],"inconclusive: 4.9 µM [inhibitor, partial curve, poor fit]"
same,Potency,[6],"inconclusive: 38.9 µM [cytotoxic, partial curve]"
same,Potency,[7],active: 13.7 µM
COP(=S)(OC)Oc1ccc([N+](=O)[O-])c(C)c1,Potency,[1],"inconclusive: 43.3 µM [falling, partial curve]"
same,Potency,[2],"inconclusive: 43.3 µM [cytotoxic, partial curve, poor fit]"
same,Potency,[3],active: 68.6 µM
same,"activity change, negative = inhibition",[5],inconclusive: -30%
same,"activity, negative = cytotoxicity",[7],inconclusive: -32.3% [cytotoxic]
C=CC(=O)OCCN(C)C,Potency,[1],inactive
same,Potency,[2],inactive
CC(C)(C)c1cc([N+](=O)[O-])cc(C(C)(C)C)c1O,Potency,[1],"inconclusive: 8.63 µM [falling, full curve]"
same,Potency,[8],active: 13.7 µM
same,Potency,[2],"inconclusive: 0.273 µM [cytotoxic, full curve, poor fit]"
same,Potency,[3],active: 0.122 µM
same,Potency,[6],"inconclusive: 21.9 µM [cytotoxic, partial curve]"
same,Potency,[7],active: 10.9 µM
CCOP(=S)(OCC)Oc1cc(C)nc(N(CC)CC)n1,Potency,[1],inactive
same,Potency,[2],"inconclusive: 24.3 µM [cytotoxic, partial curve]"
same,Potency,[3],active: 48.6 µM
same,"activity change, negative = inhibition",[5],inconclusive: -1.95%
same,Potency,[7],active: 27.3 µM
O=c1[nH]c2ccccc2n1CCCN1CCC(n2c(=O)[nH]c3cc(Cl)ccc32)CC1,Potency,[1],"inconclusive: 2.66 µM [fluorescent, full curve, poor fit]"
same,Potency,[8],inconclusive: 33.5 µM
same,"activity change, negative = inhibition",[5],inconclusive: -7.99%
same,Potency,[7],"inconclusive: 33.5 µM [cytotoxic, single point]"
same,Potency,[10],active: 23.7 µM
CC(C)(C)C(O)/C(=C\c1ccc(Cl)cc1Cl)n1cncn1 (centres undefined),Potency,[1],"inconclusive: 26.2 µM [activator, partial curve, poor fit]"
same,Potency,[2],"inconclusive: 83 µM [cytotoxic, single point]"
same,Potency,[3],active: 10.4 µM
same,Potency,[5],active: 59.3 µM
same,Potency,[6],"inconclusive: 74.6 µM [cytotoxic, single point]"
Cc1c([N+](=O)[O-])cc2c(c1[N+](=O)[O-])C(C)(C)CC2(C)C,Potency,[1],"inconclusive: 1.37 µM [activator, single point]"
same,Potency,[2],"inconclusive: 61.1 µM [cytotoxic, partial curve, poor fit]"
same,Potency,[3],active: 30.6 µM
same,Potency,[5],inactive
same,Potency,[7],"inconclusive: 24.3 µM [cytotoxic, partial curve, poor fit]"
CCCCCCCCCCCCCC[P+](CCCCCC)(CCCCCC)CCCCCC (tested in a mixture with another compound),Potency,[1],"inconclusive: 12.2 µM [cytotoxic, full curve]"
same,Potency,[2],active: 24.3 µM
same,Potency,[3],active: 0.243 µM
same,Potency,[4],"inconclusive: 4.37 µM [cytotoxic, full curve]"
same,Potency,[5],"inconclusive: 3.89 µM [cytotoxic, full curve]"
same,Potency,[6],active: 2.75 µM
same,Potency,[7],active: 3.86 µM
Oc1c(Br)c(Br)c(Br)c(Br)c1Br,Potency,[1],"inconclusive: 7.74 µM [cytotoxic, full curve]"
same,Potency,[8],inconclusive: 69 µM
same,Potency,[3],active: 2.45 µM
same,Potency,[4],inactive
same,Potency,[5],active: 13.9 µM
CC(C)(OOC(C)(C)c1ccccc1)c1ccccc1,Potency,[1],inactive
same,Potency,[2],"inconclusive: 53.7 µM [cytotoxic, partial curve, poor fit]"
same,Potency,[3],active: 60.3 µM
same,"ratio activity, negative = MMP loss",[3],inconclusive: -33.5%
same,Potency,[7],"inconclusive: 38 µM [cytotoxic, partial curve, poor fit] and inconclusive: 48.6 µM [cytotoxic, partial curve, poor fit]"
same,Potency,[10],"inconclusive: 67.6 µM [cytotoxic, single point]"
CCc1ccc(C(=O)NN(C(=O)c2cc(C)cc(C)c2)C(C)(C)C)cc1,Potency,[1],"inconclusive: 10.9 µM [rising, partial curve, poor fit]"
same,Potency,[2],"inconclusive: 30.6 µM [cytotoxic, partial curve]"
same,Potency,[3],inconclusive: 61.1 µM
same,Potency,[9],inconclusive: 30.6 µM [cytotoxic]
NC(=O)CI,Potency,[1],"inconclusive: 77.6 µM [falling, single point]"
same,Potency,[3],"inconclusive: 69.1 µM [inhibitor, single point]"
